Source: the RNAGym collection of RNA variant scans (doi:10.7554/elife.90254)
Read counts are not given, so values of variants with three or more changes are uncertain.

B1: LINE1-full (parent)
chain: UACGUAGGUGGUUUUCCCCUGAUAGUGCUAAGGGGGCCUGGAAGUUUGGACUGGGCAGAGCUCAACACAGCGUGGCAAAGUGGCUGUGGCUAGACUGCCUCUCUGGAUUCCUCGUCACUCAGCAGGGCAUCUCUGAGAGAAAUGCC

Variants of: B1
Assay: self-cleavage, relative activity (ratio to wild type); higher = more cleavage; in vitro, sequencing; the parent is a self-cleaving ribozyme

Variant | self-cleavage
G33A U73A A124G | 0.63
A31G U73A U81A U115A A117G C120U U143C | 1.38
A31U G35A A43G C56U U109A C145U | 0.1
G33U A69U U143C | 0.04
A30U A57G A65G | 0
G34A A94U A117U G125A | 0.22
A31G U73C A142G | 1.45
G32A A50G G126A | 0.53
G32A G55A U100C U119C U130A | 0
G34A A50G U85G U130C | 0.49
G32A U62C C63U | 0.02
A31G G40A U143C | 0.92
A31G A67G U119C | 1.53
G33U U46C U130C | 1.62
A30U A43G G54U A79G A136G | 0.78
A30G A31G C118U A121G | 0.48
A31G A69U A124U | 0.06
A31C A42U U87A A107G A140G | 0.05
G32A A121U A138G | 1.52
G32A A79G U85C A117U | 0.16
G34A A43G A65G U81A A117U U130C U134G | 0.03
A31C A67U A78U A140U | 0.21
A31U A64G C111U A140G | 0.29
G32A U47C U119A | 1.62

Variant | self-cleavage
A31C A124G A129U | 2.14
A31G A136C G139A | 0.9
A31G G35U U96C | 0.15
G32A A78G U96A | 0.06
G32A A78G U96C | 0.16
A31U A59U U73A U85C U100C U112C | 0
G32A A117U A140G | 2.06
A30G G55A A129G | 1.22
G32C A57G A140U | 0.81
A31G G33A G49A A78G A124U U132C | 0.71
A31G A43G U87A A117G A142G | 0
A31G U87A A140G | 0.33
A30G U46C U104A | 2.2
G32A G35U U39A U143A | 1.24
A30G U39A C146G | 1.43
A30U A43G G139A | 0.57
G34A A42G A107G G144A | 1.03
G32A G80A U132C | 1.9
A31G U46C A67U | 0.54
G33A U100C U104C | 1.38
G32U U87A U109A | 0.06
G33U A57U A78G U102C | 0.08
A30G A57G U81A U130C | 0.71
A31G A77U U81A | 1.95

Variant | self-cleavage
G33U C61A A77G U81C A94G A141G | 0.04
A30U A67U U115C | 0.18
A31U A59G U73C | 0.66
A31U U39G A42G | 0.74
A31U A65G A67G | 0.13
A30U G70A A94G | 0.1
G34A A65U A92G A121G | 0.12
A30G G36U A107G | 1.12
G32A U73C A140G | 1.93
A30U A42G A65G | 0
A30G U52A C118U | 2.06
G32A G97A C110U G127C U132C | 0.27
A30G G49C A59G | 0.43
A31G C38U A43C C51U | 0.88
G33A U81A G126U | 1.67
G32U A67G G89A | 0.03
G32A A57U U62A U115A | 0.02
G33U A57G U62A U96C | 0
G33C C37G A117G A142G | 1.75
A31G A65G U112C | 0.77
A30C U45G A141G | 0.66
A31U A57G G144A | 0.93
A30G U39A A136G | 1.93
A30U U45C U108C | 1.02

Variant | self-cleavage
A30U U73A A79G U143C | 0.43
G32U G53U U73C | 1.18
A31U U46G A69C | 0.29
A31G A64U U115C U130C | 1.31
A31U U39C U45C U73C U81A A138G | 2.7
A31U U87A A136G | 0.15
A30G G35A A50G A67G C113U G144C | 0.42
G33C G70A U109C G127A U143C | 0.07
A30U U62C A64U A79G | 0.02
A30U A79G U132C | 1.45
A31U U73C A142G | 1.53
A30U A69U U108C A121G C133A U143C | 0.1
A30U U73A A129G A138U | 1.68
A30U A77G U96A U112C | 0.14
A31U U39G A94G | 0
A31U U52C A94G | 0.63
A31U A67U U130G | 0.06
G32A U47A A142G | 1.01
A30U A64U U132C | 0.38
A31G U96C A117U | 0.05
A31U U100C U104C A117U A136G A142G | 1.31
A30G U102C A121U U134A G135A | 0.32
A31U U62C A79G C146U | 0.13
A31G G60U C113U | 0.04

Variant | self-cleavage
A30G A77U U115C | 1.79
A31G G74A G93U | 0.09
A31G U85C A124U | 0.19
A31G A77G G83A U100C A138G | 2.04
A30G U47C U52A | 2.43
A30G U73A U102G | 0.15
A31G G40A U85C | 0.14
A31G A64G U108A | 0.92
A30G A50U U115C | 0.92
A30G A67G U87A | 1
A30U A136G A138G U143C | 1.97
A30G A59G U87A | 0.08
G33C G93U A121G | 0.25
A31U U52A A78G G97A | 0.23
A30G A64G C113U | 0.53
A31G A117U A124G | 1.17
A30U C99A A107G | 1.05
G33A U62A A67G A140U | 0.13
A31C G32A U102C A121U A124G | 0.33
G32A A59G U102A U134A | 0.02
A30G A57U U112A A117U U132C | 0.31
A31G U108C A129U | 1.15
A31U A64U U109C | 0.48
A30U U112C U132C | 1.18

Variant | self-cleavage
G33A U45G A57G | 0.67
A31G A78G A94G C113A G114C | 0.2
G33C A69G A121U | 0.1
G32A U87C A94U | 0.02
A30U A92U U143A | 0.49
A31U U39C A57U U85C | 0.51
A31G A43G U134C U143C | 0.71
A30G U81C C120A U132C C145U | 1.15
A30U A65G U130C A142G | 0.25
A30C U47G G82A U112C A140G | 0.52
A31G G126U U130C | 1.75
A31U U96A U119C A129G | 0.04
A31G A43G G105U U115C A138G | 1.6
A31U U39A A129G A136U U143A | 1.92
A30U A64G A140G | 0.44
A31U G35A A43U A78U | 1.18
A31G U62C A64U A136G | 0
A31U U46C U73G | 1.23
G33A C123U A129U | 1.21
G32A U47A A64U C90U A121G | 0.07
A31U G35A A57G A78G A136G | 0.77
A31G G36C A67G U115C | 1.53
A31G G88U U96A | 0.08
A30G U39A U47C G53A U134A | 1.17

Variant | self-cleavage
A30G A50U U52C U104A A140U | 0.51
A31U A67G A138U | 0.07
G33A A43G G74A U109C | 1.01
G33A U45C C76U U87C U96C U102C | 0.07
G32C A42G U91C A141G | 0.44
A31G U62A U108C | 0.03
G32A A65G A141G | 0.05
A31U U87C C116A | 0.28
A31G A57G C76G A141G U143C | 2.74
G32A A69G C110A | 0.05
A31U A79G U85C C145U | 0.74
G32A A79G U119C | 0.94
A30G A64U A67U | 0.03
A30U U62C A121U | 0.04
A30G U47C U62A A78G | 0.15
A30G A67U U132C U143C | 0.31
G33A A79G A138G | 1.12
G32A A78G U91C G139A | 0.07
A30G A77G A142G | 2.15
A30G A141G C146U | 0.93
G32A U91C U100C | 1.09
A30G U46C U104A A117G | 0
A30G A31U U87A A129G | 0.07
